The values below come from the RNAGym collection of RNA variant scans (doi:10.1093/nar/gkz1192).

Sequences and labels used below:
B1: CPEB3 Ribozyme (parent)
chain: UAACAGGGGGCCACAGCAGAAGCGUUCACGUCGCAGCCCCUGUCAGAUUCUGGUGAAUCUGCGAAUUCUGCUGUAUAUCUC

Read counts are not given, so values of variants with three or more changes are uncertain.

The data set covers variants of B1. As to the kind of experiment: self-cleavage, relative activity (ratio to wild type); higher = more cleavage; in vitro, sequencing. The gist of the method:
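Relative activity compares each variant's cleaved/total read fraction with that of the unmutated ribozyme. To get these fractions, barcoded CPEB3 ribozyme libraries from rounds of error-prone PCR were transcribed with T7 RNA polymerase for 5 hours at 37°C and then given 15 min of DNase I treatment before EDTA was added. The RNAs were reverse transcribed with template switching and sequenced on Illumina, and DNA sequencing linked barcodes to variants. A minimum of 5 reads applied, and three batches were averaged.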
Turning to A3G C23G C34U U66C U69G, the self-cleavage was determined as 0.08. To A3G C29U U43G U60C U72A belongs 0.06. To A3G U41A A56G A64U belongs 0.21; to A3G U25C U31C A75G, 0.07; to A3G G6C G8A A35U A45G U60C U69C, 0.05. As for A3G G7U G33A C37U U48C C62A, the self-cleavage was 0.05.

With A3G C34G C40A U60C, the self-cleavage is 0.16. As to A3G C32U U76A, the self-cleavage is 0.46. In the case of A3G G9U C12A, the self-cleavage came to 0.25.

On to A3G U26C U43G U48C U58C G61A U67C, for which the self-cleavage came out at 0.11. Next, A3G G24A U26C U31A A35G: 0.09; A3G U26G A57G U60A U67C: 0.11. Next, A3G C12A C23G C32U U41A U60C U67A: 0.1; A3G G8A A15U U26A A35G U43C U51C: 0.06. Next, A3G G6U U31A A45G: 0.1.

Consider A3G U25A A56G U74A A75G, for which the self-cleavage was determined as 0.08. Turning to A3G U31C U51G, the self-cleavage was 0.94. Turning to A3G U25C C39U U41C G73C, the self-cleavage was 0.1. On to A3G U26A G46A U76C C81A, for which the self-cleavage was determined as 0.15. To A3G C12U U43C C44U A56G U58C belongs 0.1; to A3G U26C C79A, 0.56; to A3G G10A C62U U78C, 0.2.

As for A3G C40G A47U U69C, the self-cleavage amounted to 0.47.

On to A3G U26C U41C A64G G70C, for which the self-cleavage is 0.14. For A3G G10A G33C A45U U58A U60C G70U, the self-cleavage amounted to 0.03. As to A3G G7U A64G, the self-cleavage turned out to be 0.26. With A3G G61A A64G, the self-cleavage was 0.75. As to A3G G10A G30U A57G, the self-cleavage amounted to 0.23. A3G C29U C62G U72A: the self-cleavage came to 0.15. For A3G U25G A45G A57U, the self-cleavage worked out at 0.47. A3G C38U U48C: the self-cleavage amounted to 0.46. To A3G U26C C39U U72C U74C belongs 0.38; to A3G C23U U58C U67C U72A, 0.05. For A3G C11U U25A U51C A56G U60C U74C, the self-cleavage was determined as 0.18.

Take A3G G9A A35G A57G: the self-cleavage stood at 1.09.

Consider A3G G24A U49A A57G U58C U74A, for which the self-cleavage was 0.13. On to A3G U25A A57G, for which the self-cleavage turned out to be 0.51. A3G U26A G46U U72C: the self-cleavage is 0.4. For the variant A3G G9C A20G G24U U78C, the self-cleavage amounted to 0.35. Consider A3G C29U U49C U69C U80C, for which the self-cleavage turned out to be 0.07.

As for A3G U31C U41A, the self-cleavage came to 0.32. Next, A3G G30A A64G U78A: 0.07. Regarding A3G G8U U41A U66C, the self-cleavage stood at 0.08. For the variant A3G G8U A15C, the self-cleavage was found to be 0.77.

In the case of A3G G6A U25C A65C, the self-cleavage was 0.41. For the variant A3G U25C U41C A45G A56G A64U, the self-cleavage came out at 0.45. For the variant A3G C32A U48G U49C C59U, the self-cleavage was 0.09. As for A3G G10A A45U U72C A75G, the self-cleavage was 0.2. In the case of A3G C12A A15G C23G A57G, the self-cleavage stood at 0.54. For A3G U26C C40A A45G, the self-cleavage was found to be 0.04. Turning to A3G G8U U60A U80C, the self-cleavage was 0.33. For A3G G19C U49A A65U, the self-cleavage turned out to be 0.22. For A3G G9U G22U U67C U69C, the self-cleavage came to 0.14. On to A3G G7U G8A U26A U31A U69C, for which the self-cleavage came out at 0.06.

As to A3G G6U C17U C29U U41A U49A, the self-cleavage was found to be 0.06. As for A3G U31A U41A, the self-cleavage stood at 0.39. To A3G U31A U41G belongs 0.53; to A3G C12U G33A G61A, 0.04; to A3G G16C A45G A47G, 0.11. As to A3G U26C U72G U76A, the self-cleavage was 0.37.

In the case of A3G C39U U41C G53A A56G U72A, the self-cleavage amounted to 0.13.

As to A3G U25A A28U C32A U67C, the self-cleavage stood at 0.23.

On to A3G G9A C12U A20G U78A U80C, for which the self-cleavage is 0.13. To A3G G7C U51A U66A belongs 0.36. Take A3G U26A U41A A45U G46U: the self-cleavage came out at 0.3. Regarding A3G G8A A21G G22U A56G U58A A77G, the self-cleavage turned out to be 0.06. For A3G U26C A35U A45U, the self-cleavage amounted to 0.14. For A3G G10A A13U U31A U78C, the self-cleavage worked out at 0.09. Turning to A3G G9A A13U U43A A77G, the self-cleavage is 0.69. Take A3G U31C G55U A64G U78C: the self-cleavage amounted to 0.36. Next, A3G C27A U41A U43A: 0.33.

For the variant A3G G6A U58A U80A, the self-cleavage was found to be 0.29. On to A3G G10A U31C U41C U66C, for which the self-cleavage stood at 0.08. On to A3G C23U U25C U72C U78A, for which the self-cleavage worked out at 0.14. A3G G30U U41C: the self-cleavage was 0.29. A3G C38U U41C: the self-cleavage was determined as 0.94. For A3G U26C U67C, the self-cleavage came to 0.2. A3G U26C U31G A64G U66A: the self-cleavage stood at 0.36. Take A3G G16C A56U U67C: the self-cleavage was found to be 0.14. Next, A3G U26C U74C: 1.02; A3G C50A G61A U76C: 0.5.

Consider A3G U41A U43A U76A, for which the self-cleavage was 0.23. Consider A3G U26C A65G, for which the self-cleavage was 0.32. A3G U26C C44U: the self-cleavage was found to be 0.17. In the case of A3G C11U A47G, the self-cleavage was 0.65. For the variant A3G C14U U51C A64G, the self-cleavage stood at 0.9. To A3G C38U A45U belongs 0.16; to A3G U26C U41A U72A U76A, 0.53; to A3G C11G A15G G36C U67G, 0.23. As to A3G U26C G55U, the self-cleavage worked out at 0.56.

For the variant A3G G7U U60A U72C, the self-cleavage was 0.05. Consider A3G G8A A13U A20G G36A U58C U72C, for which the self-cleavage was found to be 0.05. With A3G G70A U80C, the self-cleavage was determined as 0.54.

Regarding A3G G9A A18G A45C A65G, the self-cleavage is 0.2. A3G U26A A57G A75G: the self-cleavage is 0.69. In the case of A3G C14U A35G, the self-cleavage turned out to be 1.28.

As for A3G U26A U74C A77U, the self-cleavage came to 1.16. As for A3G G8C U25C U67C, the self-cleavage was 0.32. For A3G C38A G52A A57G U60C U78C U80C, the self-cleavage amounted to 0.09. As for A3G G10A A18U, the self-cleavage turned out to be 0.16. To A3G G36U U43C U51A G61A belongs 0.11. Regarding A3G G8A C14U C37A U60G U66C, the self-cleavage was determined as 0.03. Take A3G C23U A35G U49A: the self-cleavage amounted to 0.53.

For the variant A3G G16U U41A, the self-cleavage stood at 0.11. Turning to A3G C29A G53A, the self-cleavage was 0.4. In the case of A3G G30A A64G, the self-cleavage turned out to be 0.37. Consider A3G U25C C38A, for which the self-cleavage turned out to be 0.14. Consider A3G C17U A56C U72C, for which the self-cleavage was found to be 0.14. A3G U26A A35G: the self-cleavage was 1.25. To A3G G10A C23A U31C U49C G63A U76C belongs 0.05. To A3G C11A U31C A45U belongs 0.07; to A3G G8U A18G A45G U54C U74A A75U, 0.06.

As to A3G C12U U48C U74C, the self-cleavage was 1.21. For A3G G24C U26A C40U U66A U72C, the self-cleavage was 0.19. On to A3G G33A G46U, for which the self-cleavage was 0.1. Take A3G G8A G10A U60A U74C: the self-cleavage amounted to 0.1. For the variant A3G U41A U51A G63U, the self-cleavage came out at 0.17.

In the case of A3G U31A C32A U80C, the self-cleavage was 0.18. To A3G G6A A28G U69A belongs 0.02; to A3G G52A A56U A64G, 0.78; to A3G G36A A45U U54C, 0.1. Turning to A3G G6U C59A, the self-cleavage was 0.38. For A3G U25G U31C U72C, the self-cleavage came out at 0.15. For A3G G6A A15U G16A G33A C71A, the self-cleavage stood at 0.15.

Regarding A3G U25A U31A A47G A65U, the self-cleavage turned out to be 0.04. On to A3G U26C C40A, for which the self-cleavage was found to be 0.09. On to A3G C17U C23U U26C A28G A64U, for which the self-cleavage was determined as 0.04. On to A3G G52U U78A, for which the self-cleavage is 1.18. Next, A3G U41A U49A: 0.49. Next, A3G C23A U25C U66C U74A: 0.17.

In the case of A3G U41A A47U A64G, the self-cleavage stood at 0.45. Regarding A3G C29G A45G U80A, the self-cleavage worked out at 0.44. With A3G C23U U31C A35G U41C U51A U72G, the self-cleavage was 0.18. A3G G10U U60A: the self-cleavage stood at 0.08. Next, A3G C59G U69C: 0.35; A3G C4U U67C U69C: 0.3; A3G U25G U49A U72A: 0.1.

As to A3G G9U C68G U80A, the self-cleavage was 0.05. Consider A3G G8A A21G A77G, for which the self-cleavage amounted to 0.51. On to A3G G6A C38A A45G U67C, for which the self-cleavage came to 0.17. Consider A3G G33A U41A U43A U58C, for which the self-cleavage was found to be 0.09. Consider A3G C44A U78G, for which the self-cleavage stood at 0.3. Turning to A3G G7U U43C A45C, the self-cleavage was 0.11. As for A3G G16A U41C, the self-cleavage is 0.33. Consider A3G U26A U54A, for which the self-cleavage is 0.85.

A3G G7U U54A A64G: the self-cleavage amounted to 0.07.

With A3G G19A U41C A56G U72G, the self-cleavage was found to be 0.35. As for A3G C12U U25A U31C U48C C50U U72C, the self-cleavage was determined as 0.13.

Regarding A3G G24A C29G U60G, the self-cleavage came to 0.08. A3G C39U U54C U74A: the self-cleavage is 0.75. As for A3G G9U A21G U78C, the self-cleavage amounted to 0.06. As to A3G G6A A64G U80C, the self-cleavage is 0.1. In the case of A3G U26C U48C A56U U72A, the self-cleavage worked out at 0.12. Turning to A3G G7A U48C, the self-cleavage is 0.51. With A3G U31C A35G U41A A45G, the self-cleavage was 0.37.

On to A3G C62U G70U A77U, for which the self-cleavage amounted to 0.11.

Turning to A3G C11G U25C U41C U43C, the self-cleavage was 0.05. A3G U25C A35U U58A: the self-cleavage stood at 0.29.

Turning to A3G U26C G53A A64U C79U, the self-cleavage was 0.1.

A3G G6U C11U A47G A56U A64G G70A: the self-cleavage was determined as 0.08. As to A3G G10A A13U A20U U25C, the self-cleavage was found to be 0.39. Next, A3G G10U A18U C34U U49C: 0.05; A3G C29U A47U G61A U74A: 0.36; A3G C11G A13G U25C U31A: 0.71.

Turning to A3G U26A G46A U54G A77U, the self-cleavage worked out at 0.36. A3G G33A A45U G55A: the self-cleavage was 0.56. For the variant A3G C29A U31C U41A U51C A57G A75G, the self-cleavage was found to be 0.04.
